According to the supplement of paper PMC8285479:
Several values for one entry are separate records, joined by “and”; a condition that tells them apart may be missing. Identical values can stand only once. Counter-ions that a name gives are not always drawn. ± gives the standard deviation of the averaged measurements. Over roughly 1,900 compounds, “normalised cell viability (NPI; 0 = phenylarsine oxide control, 1 = DMSO control)” has its median near 1; the lowest 2% begin near 0.039. The list shows a part of the results.

Tested on: NCI-H1944
Test: normalised cell viability (NPI; 0 = phenylarsine oxide control, 1 = DMSO control) (fraction of DMSO control); NCI-H1944 is a non-small cell lung cancer line; higher = more viable cells (less compound toxicity)
Details: 6 days
[1] = glucocorticoid arm: hydrocortisone 2.75 uM co-treatment, compound 1 µM
[2] = glucocorticoid arm: hydrocortisone 2.75 uM co-treatment, compound 5 µM
[3] = glucocorticoid arm: hydrocortisone 2.75 uM pre-treated 2 days and continued, compound 1 µM
[4] = glucocorticoid arm: hydrocortisone 2.75 uM pre-treated 2 days and continued, compound 5 µM
[5] = glucocorticoid arm: vehicle, compound 1 µM
[6] = glucocorticoid arm: vehicle, compound 5 µM
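Further: CTB read-out in 384-well plates, mean of triplicate wells, normalised per plate against 1 µM phenylarsine oxide and 0.1% DMSO, compounds added 24 h after seeding.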

Compound	normalised cell viability [1]	normalised cell viability [2]	normalised cell viability [3]	normalised cell viability [4]	normalised cell viability [5]	normalised cell viability [6]
CCCCCCCCCCCCCCCC(=O)OC(CC(=O)O)C[N+](C)(C)C (racemic) [Palmitoyl-DL-Carnitine chloride]	1.02 ± 0.011	0.975 ± 0.014	1.013 ± 0.0058	0.863 ± 0.28	1.007 ± 0.0058	1.02 ± 0.02
CC[C@@H]1SC2(CCN(C)CC2)NC1=O	1.02	1.01 ± 0.011	1.03 ± 0.029	1.02 ± 0.011	1.013 ± 0.0058	1.01 ± 0.012
C/C=C1\C(=O)C[C@H]2[C@@H]3CCC4=CC(=O)CC[C@]4(C)[C@H]3CC[C@]12C [(Z)-Guggulsterone]	0.9933 ± 0.0015	0.98 ± 0.031	0.994 ± 0.02	0.964 ± 0.029	0.9953 ± 0.0035	0.9887 ± 0.0091
CN(C)CC(=O)Nc1ccc2[nH]c(=O)c3ccccc3c2c1	–	1.04 and 1.03	–	–	–	–
N#C/C(=C\c1ccc(-c2cc(Cl)ccc2Cl)o1)C(=O)Nc1cccc2ncccc12	0.971 ± 0.01	0.978 ± 0.035	0.984 ± 0.018	0.991 ± 0.014	0.9887 ± 0.0078	0.989 ± 0.012
CC(C)(C)NCC(O)COc1cccc2c1CCC(=O)N2 (centres undefined) [Carteolol HCl]	1.01 ± 0.021	0.986 ± 0.012	1.02 ± 0.017	0.977 ± 0.019	1.007 ± 0.0058	1.013 ± 0.0058
CNC(=O)c1cc(Oc2ccc(NC(=O)Nc3ccc(Cl)c(C(F)(F)F)c3)c(F)c2)ccn1 [Regorafenib (BAY 73-4506)]	0.883 ± 0.019	0.797 ± 0.038	0.88 ± 0.0036	0.848 ± 0.015	0.9853 ± 0.0067	0.994 ± 0.014
CNC(=O)c1cc(Oc2ccc(NC(=O)Nc3ccc(Cl)c(C(F)(F)F)c3)c(F)c2)ccn1 [Regorafenib; BAY 73-4506(Regorafenib)]	0.907 ± 0.013	0.635 ± 0.017	0.945 ± 0.011	0.73 ± 0.056	0.545 ± 0.057	0.817 ± 0.043
CC(C)C[C@H](NC(=O)[C@H](O)[C@H](N)Cc1ccccc1)C(=O)O [Epibestatin hydrochloride]	1.003 ± 0.0064	0.9953 ± 0.004	0.9977 ± 0.004	0.9947 ± 0.005	0.9957 ± 0.0067	1.007 ± 0.0058
CN(C)C(=O)C(CCN1CCC(O)(c2ccc(Cl)cc2)CC1)(c1ccccc1)c1ccccc1 [Loperamide hydrochloride]	0.9953 ± 0.0042	0.405 ± 0.032	1.017 ± 0.0058	0.87 ± 0.29	1	0.0171 ± 0.0045
CN(C)C(=O)C(CCN1CCC(O)(c2ccc(Cl)cc2)CC1)(c1ccccc1)c1ccccc1 [Loperamide HCl]	1.02 ± 0.026	0.893 ± 0.035	1.047 ± 0.0058	0.984 ± 0.012	1.017 ± 0.0058	0.919 ± 0.0099
CC[N+](CC)(CC)CCOc1ccc(/C=C/c2ccccc2)cc1	0.933 ± 0.016	0.324 ± 0.0096	0.9873 ± 0.0055	0.702 ± 0.038	1.013 ± 0.0058	0.273 ± 0.036
Nc1nc2[nH]cnc2c(=S)[nH]1 [Thioguanine]	0.931 ± 0.0046	0.423 ± 0.024	0.9813 ± 0.0011	0.754 ± 0.04	0.9133 ± 0.0051	0.119 ± 0.011
C=CCc1cccc(/C=N/NC(=O)CN2CCN(Cc3ccccc3)CC2)c1O	0.989 ± 0.011	0.999 ± 0.022	1 ± 0.038	1 ± 0.022	0.9867 ± 0.0068	0.991 ± 0.0044
